Data from PMC4336329 (PLoS ONE, 2015).
Among all 310,000 compounds or so, about 14,000 (4.5%) showed an effect of 50% or more. The effect is printed as a negative number. This is one part of the list.

molecular target: human ether-à-go-go-related gene (hERG) potassium channel (human, UniProt Q12809); assay: primary screen, population patch clamp on CHO cells stably expressing hERG
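Also: peak tail current of the secondary pulse compared with the same well before compound.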

human ether-à-go-go-related gene (hERG) potassium channel, sequence (Q12809 whole entry, looked up): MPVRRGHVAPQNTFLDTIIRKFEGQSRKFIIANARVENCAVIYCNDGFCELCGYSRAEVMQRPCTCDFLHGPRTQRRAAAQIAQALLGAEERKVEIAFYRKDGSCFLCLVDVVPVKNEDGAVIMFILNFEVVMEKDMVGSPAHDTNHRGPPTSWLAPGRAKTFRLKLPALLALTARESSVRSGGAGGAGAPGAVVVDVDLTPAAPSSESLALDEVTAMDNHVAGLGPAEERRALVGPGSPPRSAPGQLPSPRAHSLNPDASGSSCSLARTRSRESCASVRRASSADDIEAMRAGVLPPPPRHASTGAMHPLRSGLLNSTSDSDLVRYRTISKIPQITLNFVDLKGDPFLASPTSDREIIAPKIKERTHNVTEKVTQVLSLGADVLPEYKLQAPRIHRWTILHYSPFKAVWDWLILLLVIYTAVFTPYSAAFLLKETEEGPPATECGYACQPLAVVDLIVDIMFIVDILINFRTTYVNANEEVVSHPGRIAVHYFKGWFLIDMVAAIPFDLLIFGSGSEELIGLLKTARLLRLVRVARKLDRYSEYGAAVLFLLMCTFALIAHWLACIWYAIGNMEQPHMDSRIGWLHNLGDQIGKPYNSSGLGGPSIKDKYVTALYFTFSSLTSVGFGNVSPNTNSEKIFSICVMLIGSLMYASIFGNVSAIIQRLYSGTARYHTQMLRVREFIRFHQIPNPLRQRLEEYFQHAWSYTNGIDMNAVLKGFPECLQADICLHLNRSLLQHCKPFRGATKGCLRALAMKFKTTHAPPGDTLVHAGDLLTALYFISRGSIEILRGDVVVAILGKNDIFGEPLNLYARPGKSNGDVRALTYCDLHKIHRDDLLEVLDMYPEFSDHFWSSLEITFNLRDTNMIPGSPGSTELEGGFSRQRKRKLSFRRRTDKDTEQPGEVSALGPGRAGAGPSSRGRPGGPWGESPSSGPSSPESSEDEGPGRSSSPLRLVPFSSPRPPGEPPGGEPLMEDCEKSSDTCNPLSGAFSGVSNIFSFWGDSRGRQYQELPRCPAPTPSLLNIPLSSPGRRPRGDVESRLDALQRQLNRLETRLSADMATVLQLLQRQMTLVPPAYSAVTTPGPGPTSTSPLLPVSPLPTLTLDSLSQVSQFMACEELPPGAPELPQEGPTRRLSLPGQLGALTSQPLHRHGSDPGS

Row | SMILES | hERG current change (%, negative = inhibition) at 10uM
1 | CC(C)[C@H](NC(=O)[C@@H]1Cc2ccccc2CN1)C(=O)NC1CCCCC1 | -43.4%
2 | C=CCNc1nc(N2CCOCC2)nc(N2CCOCC2)n1 | -9.33%
3 | Cn1cc(-c2nnnn2-c2ccc(Cl)cc2)c(C(F)(F)F)n1 | -4.49%
4 | CC1CCC(NCCc2ccc3c(c2)OCO3)CC1.O=C(O)C(=O)O (centres unmarked) | -21.3%
5 | CCCc1cc(N2CCC(C(N)=O)CC2)nc(-c2ccccc2)n1 | -19.1%
6 | OC(COCc1cccs1)CN1CCN(c2cccc(C(F)(F)F)c2)CC1 (centres unmarked) | -69.6%
7 | CCOC(=O)[C@H]1[C@H]2COc3cc(OC)ccc3[C@@H]2N2C(=O)c3cc(OC)ccc3NC(=O)[C@@]12C | -4.66%
8 | O=C(Oc1cccnc1)c1ccc(Cl)c(Cl)c1 | 2.56%
9 | Cc1ccccc1NC(=O)/C(=C/c1ccccc1)c1ccccc1 | 0.411%
10 | Cc1ccc(S(=O)(=O)N2CCOCC2)cc1C(=O)NCc1cccs1 | -5.18%
11 | CC(=O)NC(c1ccc(C)cc1)c1cc([N+](=O)[O-])c2cccnc2c1O (centres unmarked) | 1.93%
12 | Cc1ccc(NC(=O)CN(C)C(=O)c2cc(C)on2)cc1 | -4.91%
13 | COc1ccc2oc(C(=O)N3CCN(C(=O)c4ccco4)CC3)c(C)c2c1 | -24.7%
14 | Cc1cc(/C=C2\SC(=S)NC2=O)c(C)n1-c1ccccc1 | 14.6%
15 | COCCn1ccc(O)c(Cc2ccc(Cl)cc2)c1=O | -0.571%
16 | C=CCN1CCN(C(CC(C)C)c2nnnn2CCOC)CC1.Cl (centres unmarked) | 8.96%
17 | N#Cc1nc(-c2cccc(Cl)c2)oc1N1CCC(C(N)=O)CC1 | 0.912%
18 | CCOC(=O)N1CCC(NC(=O)CCC(=O)N2CC(C)Oc3ccccc32)CC1 (centres unmarked) | 2.44%
19 | COc1ccc(OC)c(C(=O)CSc2nnc(-c3cccs3)n2C)c1 | 14.4%
20 | CCOC(=O)c1nc(Nc2ccc(C(=O)O)cc2)c2ccccc2n1.Cl | 1.54%
21 | CCOc1cccc(/C=N/NC(=O)CC2C(=O)NN=C2C)c1O (centres unmarked) | 15.5%
22 | CCC(C)n1c(-c2cccs2)nc2nc3ccccc3nc21 (centres unmarked) | -4.95%
23 | Cc1cc(C(=O)COC(=O)c2ccc(N)c([N+](=O)[O-])c2)c(C)n1-c1ccc2c(c1)OCO2 | 6.01%

Row | SMILES | hERG current change (%, negative = inhibition) at 10uM
24 | COc1ccc(CSc2nnc(C)n2N)cc1Br | 4.67%
25 | CN1CCN(CCCn2cnc3c(=O)oc4ccccc4c32)CC1 | 8.19%
26 | Cc1ccccc1C(=O)NNC(=O)c1ccncc1 | 10.6%
27 | Cc1ccc(-c2csc(/C(C#N)=C(\O)CN3CCN(C(=O)c4ccco4)CC3)n2)cc1 | 0.609%
28 | CC(C)c1ccc(CNn2cnnc2)cc1 | -4.85%
29 | Cc1c(N=Nc2c(O)n(Cc3ccccc3)c(=O)[nH]c2=O)c(=O)n(-c2ccccc2)n1C | -11.4%
30 | Cc1ccc(NC(=S)N2CCN(c3ccccc3F)CC2)c(C)c1 | 14%
31 | COc1ccccc1-c1nnc(SC2CCc3ccccc3NC2=O)s1 (centres unmarked) | 9.02%
32 | COc1ccc(C2C=C(c3ccccc3)Nc3ncnn32)cc1 (centres unmarked) | -57.4%
33 | COc1ccc(NC(=O)Nc2cccc([N+](=O)[O-])c2)cc1Cl | -7.77%
34 | O=C(NCC(c1ccco1)N1CCc2ccccc21)c1ccccc1Cl (centres unmarked) | -60.2%
35 | Cc1ccc(C)c(OCC(=O)OCC(=O)Nc2c(C)nn(-c3ccccc3)c2C)c1 | -5.33%
36 | O=C(NCC1CCCO1)c1ccc2c(c1)N(Cc1ccccc1)C(=O)CS2 (centres unmarked) | -31.9%
37 | Cc1cccc(Cn2c(C(C)O)nc3ccccc32)c1 (centres unmarked) | 5.37%
38 | CC(C)(C)N1CC23C=CC(C[C@@H]2C1=O)O3 (some centres unmarked) | 0.587%
39 | Cc1cccc(NC(=O)c2ccc(-n3cccn3)c([N+](=O)[O-])c2)c1 | -20.4%
40 | COc1ccc2cc3c(N)c(C(=O)NCc4ccco4)sc3nc2c1 | -12%
41 | Fc1cccc(CCN2CCNC[C@@H]2CC2CCCCC2)c1 | -19.1%
42 | COc1ccc(-c2ccc(/C=N/N3C(=O)C4C5C=CC(C6CC56)C4C3=O)o2)c([N+](=O)[O-])c1 (centres unmarked) | -58.9%
43 | O=c1c2cnn(-c3ccccc3)c2ncn1Cc1cccnc1 | -2.1%
44 | Br.C1=C(c2ccco2)N2CCN=C2S1 | 1.91%
45 | CC(C)(C)NS(=O)(=O)c1ccc(CCC(=O)NCc2ccc3c(c2)OCO3)cc1 | -26.2%
46 | CC(C)CCn1c(Cl)nc2c1c(=O)n(C)c(=O)n2C | -4.57%

Row | SMILES | hERG current change (%, negative = inhibition) at 10uM
47 | CCOC(=O)[C@@H]1[C@H]2COc3ccccc3[C@@H]2N2C(=O)N(c3ccc(OC)cc3)C(=O)[C@]12C | -6.02%
48 | COc1cc(Br)cc(C=Nc2cccc(C(F)(F)F)c2)c1O | 4.79%
49 | O=C(CCl)N1N=C(c2ccco2)CC1c1cccs1 (centres unmarked) | -3.6%
50 | CC(Oc1cc(C(F)(F)F)cc(C(F)(F)F)c1)C(=O)NC(N)=O (centres unmarked) | -9.42%
51 | COc1ccc(NC(=O)CSCC(=O)Nc2ccccc2C(=O)N2CCCCC2)cc1 | 1.04%
52 | COc1cccc(/C=C/C(=O)NNC(=O)CCN2CCN(Cc3ccccc3)CC2)c1 | -36.7%
53 | O=C(NC1CCCCC1)C(=S)N1CCOCC1 | 6.33%
54 | CCN(CC)C(=O)Cn1cnc2sc(C(=O)Nc3cc(OC)c(OC)c(OC)c3)c(C)c2c1=O | 14.5%
55 | O=C(CNC(=O)c1ccc(Cl)cc1Cl)NCc1ccccn1 | 3.7%
56 | Cc1cc2c(=O)n(C)c(SCC(=O)Nc3cccc(O)c3)nc2s1 | 1.81%
57 | COc1cc2c(cc1OC)CC(=O)NC=C2 | 13.1%
58 | O=C1C(=O)N(CCO)C(c2cccc(F)c2)/C1=C(\O)c1ccc(Cl)cc1 (centres unmarked) | 0.95%
59 | COc1cc2c(cc1OC)C(c1cc(C)ccc1C)CC(=O)N2 (centres unmarked) | 9.15%
60 | Cc1cc(C)c(NC(=S)NCCCSC2CCCCC2)c(C)c1 | 11.2%
61 | O=C(OCn1ncc(Br)c(Br)c1=O)c1c(F)cccc1F | 14.9%
62 | COc1ccc(-c2nnc(SCc3cccnc3)o2)cc1 | -19.8%
63 | CN1CCN(C(=O)c2ccc3c(c2)N(Cc2ccccc2)CCS3)CC1 | -27.2%
64 | O=C(NCc1ccc(Cl)cc1)N1CCc2ccccc2C1 | 5.41%
65 | O=C(NCn1ccc(=O)[nH]c1=S)c1ccccc1 | 7.64%
66 | COC(=O)c1ccc(C23CC4(C2)[C@H](CN(C)[C@@H]4c2ccccc2)C3c2ccccc2)cc1 (some centres unmarked) | -2.82%
67 | O=C(O)CCCSc1nccn1-c1ccccc1 | 22.3%
68 | CN(Cc1ccccc1)S(=O)(=O)c1ccc(Cl)c(C(=O)NCCc2ccccn2)c1 | -61.8%
69 | Cc1ccc(S(=O)(=O)N(C)CC(=O)NCCCn2ccnc2)cc1 | 9.92%

Row | SMILES | hERG current change (%, negative = inhibition) at 10uM
70 | COc1ccccc1N1CCN(C(=O)CSc2nnc(NC(=O)c3ccco3)s2)CC1 | 13.6%
71 | COCC(=O)Nc1nnc(SCC(=O)N2CCCCC2)s1 | 17.9%
72 | Cc1ccc2nc(SCC(=O)Nc3c(C)n(C)n(-c4ccccc4)c3=O)[nH]c2c1 | 4.39%
73 | CCN1C(=O)NC(=O)/C(=C\c2ccc(N3CCOCC3)cc2OC)C1=O | 13.7%
74 | O=C(CSc1ccccc1)Nc1ccc(N2CCOCC2)cc1 | 2.98%
75 | COC(=O)c1cc(S(=O)(=O)NCC2CCN(CCc3cccs3)CC2)cn1C | -49.6%
76 | O=C(CN1C(=O)NC2(CCCCC2)C1=O)Nc1cccc2ncccc12 | 7.41%
77 | O=C(NC(=O)N1CCCCC1)c1ccc(Cl)cc1 | 15.7%
78 | O=C(CCCOc1cccc(Br)c1)NCCOc1ccccc1 | -19.9%
79 | Cc1ccc(C(=O)c2ccc(N3CCN(C)CC3)c([N+](=O)[O-])c2)cc1 | -68.8%
80 | CCn1c(SCC(=O)NC2(C#N)CCCCC2)nc2ccccc2c1=O | -5.52%
81 | Fc1ccc(-[n+]2nc(Nc3ccccc3)sc2-c2cccc(Cl)c2Cl)cc1.[Cl-] | 8%
82 | CCN(CC(=O)Nc1c(F)cccc1F)C(=O)Cc1csc(-c2ccccc2)n1 | -13.8%
83 | Cc1cc(C)cc(N(C(=O)CNC(=O)c2ccco2)C(C(=O)NC2CCCCC2)c2cccnc2)c1 (centres unmarked) | 22.1%
84 | COC(=O)C1=CN(Cc2ccc(C)cc2)C=C(C(=O)OC)C1c1ccc(F)c(F)c1 | 7.48%
85 | O=C(COc1ccccc1Cl)Nc1nnc(S(=O)(=O)N2CCCCCC2)s1 | 7.96%
86 | Cc1sc2nc(CN3CCOCC3)[nH]c(=O)c2c1-c1ccccc1 | 2.19%
87 | COc1cc(NC(=O)COC(=O)CO/N=C(\C)c2ccc3c(c2)OCO3)cc(OC)c1OC | 9.08%
88 | CC1CCCCC1NC(=O)c1cccc(NC2=NC3CS(=O)(=O)CC3S2)c1 (centres unmarked) | -12.2%
89 | C/C(=N\O)C(C)(C)Nc1ccc(Cl)cc1 | -0.0105%
